{"source": "PubChem BioAssay AID686978", "about": "(National Center for Advancing Translational Sciences (NCATS), 2013)", "note": "The whole screen tested about 420,000 compounds, of which about 64,000 (15%) were called active. Inconclusive results, whose numbers are uncertain, are shown with a selection of clear calls. Calls come from the whole dose curve; as a rule, active = well fitted inhibition curve with a large enough effect; inconclusive = small, poorly fitted or top-dose-only effect; inactive = flat fitted curve, though single readings scatter. No potency is given beside an inconclusive call; the fits are too rough. Potency is the fitted concentration of half-maximal effect; tags give direction and shape of the fitted curve."}
{"test": "qHTS for Inhibitors of human tyrosyl-DNA phosphodiesterase 1 (TDP1): qHTS in cells in absence of CPT; note: nearly all actives have a fitted effect of over 55% in size", "conditions": "DT40 Tdp1-/- hTDP1 cells, no CPT, ATP luminescence, 48 h; series mostly up to 46.2 µM", "summary_of_the_method": "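Growth of hTDP1-complemented DT40 Tdp1-knockout cells is measured by ATP luminescence after at least 48 hr compound exposure at 37 °C, with DMSO substituting for the 20 nM CPT used in the parallel screen.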"}
{"smiles": "Cc1ccc(S(=O)(=O)/N=C(\\N)Nc2nc(C)c3cc(C)c(C)cc3n2)cc1", "Potency": "inconclusive [inhibitor, single point]"}
{"smiles": "FC(F)Oc1ccccc1NC(=S)NCCc1ccccc1", "Potency": "inconclusive [inhibitor, single point]"}
{"smiles": "CCOc1ccc(NC2=C(OC)C(=O)c3ccccc3C2=O)cc1", "Potency": "inconclusive [inhibitor, single point]"}
{"smiles": "CCOc1ccc(S(=O)(=O)Nc2c(C)n(C)n(-c3ccccc3)c2=O)cc1", "Potency": "inactive"}
{"smiles": "CC1CN(C(=O)COC(=O)c2cccc(S(=O)(=O)N3CCc4ccccc43)c2)CC(C)O1", "note": "(stereo not drawn)", "Potency": "inconclusive [inhibitor, single point]"}
{"smiles": "Cc1nc(N2CCCC2)c2c(C(=O)Nc3ccc(Br)cc3F)c(C)oc2n1", "Potency": "inconclusive [inhibitor, single point]"}
{"smiles": "CS/C(=C\\C(=O)c1ccco1)Nc1ccccc1Cl", "Potency": "inactive"}
{"smiles": "CC(NC(=O)C(C)(C)C)C(c1cccs1)N1CCOCC1", "note": "(stereo not drawn)", "Potency": "inactive"}
{"smiles": "NCCCCNS(=O)(=O)c1ccc2c(Cl)cccc2c1", "Potency": "active: 11.9 µM"}
{"smiles": "COc1ccc(-c2cc(C(F)(F)F)nc(SCC(=O)N(C)Cc3cnn(C)c3C)n2)cc1OC", "Potency": "active: 16.4 µM"}
{"smiles": "CC(C)NC(=O)C1CCC(Cn2c(=O)c3sccc3n(CC(=O)Nc3ccccc3)c2=O)CC1", "note": "(stereo not drawn)", "Potency": "inconclusive [inhibitor, single point]"}
{"smiles": "O=[N+]([O-])c1ccc(N2CCN(CC(O)COc3ccccc3)CC2)cc1", "note": "(stereo not drawn)", "Potency": "inconclusive [inhibitor, partial curve]"}
{"smiles": "c1ccc(COn2c(-c3ccccc3)nc3c2CCc2nonc2-3)cc1", "Potency": "active: 25.9 µM"}
{"smiles": "CCOCc1c(C(=O)Nc2ccc3nc(N4CCOCC4)sc3c2)oc2ccccc12", "Potency": "inconclusive [inhibitor, single point]"}
{"smiles": "COc1cccc(NC(=O)CN(C)C(=O)c2cc(S(=O)(=O)N3CCCCC3)ccc2Cl)c1", "Potency": "inconclusive [inhibitor, single point]"}
{"smiles": "CC(C)Oc1ccc(CCNC(=O)CC2C(=O)NCCN2C)cc1", "note": "(stereo not drawn)", "Potency": "inconclusive [inhibitor, single point]"}
{"smiles": "CCOC(=O)c1c(C)n(-c2ccccc2)c2ccc(OC(=O)c3cccc(Cl)c3)cc12", "Potency": "active: 25.9 µM"}
{"smiles": "COc1ccc(-c2csc3nc(-c4ccccc4)oc(=O)c23)cc1OC", "Potency": "inconclusive [inhibitor, single point]"}
{"smiles": "COc1ccc(NC(=O)C2C(c3ccccc3)C2(Cl)Cl)c(OC)c1", "note": "(stereo not drawn)", "Potency": "inconclusive [inhibitor, single point]"}
{"smiles": "COC(=O)CCN(C1CCCCC1)S(=O)(=O)c1ccc(S(=O)(=O)NC2CCCCC2)cc1", "Potency": "inconclusive [inhibitor, single point]"}
{"smiles": "COCCNC(=O)c1ccc(N2CC3CC(C2)c2cccc(=O)n2C3)c(NC(=O)c2ccc(C(C)(C)C)cc2)c1", "note": "(stereo not drawn)", "Potency": "inconclusive [inhibitor, partial curve]"}
{"smiles": "C=CCC[C@@H](CCCCC)OC(=O)/C=C/[C@H](O)[C@@H](O)C[C@@H](O)CC=C", "Potency": "active: 16.4 µM"}
{"smiles": "CC(C)n1c(SCc2ccccc2F)nc2c1c(=O)n(C)c(=O)n2C", "Potency": "active: 25.9 µM"}
{"smiles": "N/C(=N\\OC(=O)c1cccs1)c1cccc([N+](=O)[O-])c1", "Potency": "inactive"}
{"smiles": "CCN(CC)C(=O)Cn1c(=O)n(Cc2ccc(F)cc2)c(=O)c2sccc21", "Potency": "inconclusive [inhibitor, partial curve, poor fit]"}
{"smiles": "C=CCc1ccc(OCCOc2cccc(/C=N/n3cnnc3)c2)c(OC)c1", "Potency": "inconclusive [inhibitor, single point]"}
{"smiles": "CC(C)NC(=O)C1(C)CCN1C(=O)Cc1ccc(-c2ccccc2)cc1", "note": "(stereo not drawn)", "Potency": "active: 13 µM"}
{"smiles": "O=C(c1cc(C(F)(F)F)cc(C(F)(F)F)c1)N1CCC2(CC1)CCN(c1ccccc1)CC2", "Potency": "inactive"}
{"smiles": "CCOC(=O)c1ccc(CN(Cc2ccccc2)S(=O)(=O)c2ccc(Cl)cc2)cc1", "Potency": "inconclusive [inhibitor, single point]"}
{"smiles": "Cc1cccc(-c2nc(CSc3nncn4c3cc3sccc34)c(C)o2)c1", "Potency": "inconclusive [inhibitor, single point]"}
{"smiles": "Cc1cccc(-n2c(C)c(-c3ccccc3)[nH]c2=S)c1", "Potency": "inconclusive [inhibitor, single point]"}
{"smiles": "O=C(NCCCN1CCN(CCCNC(=O)c2cc([N+](=O)[O-])ccc2Cl)CC1)c1cc([N+](=O)[O-])ccc1Cl", "Potency": "inactive"}
{"smiles": "CC(C)Oc1ccc(CNC(=O)C2CCN(C(=O)N3CC(C)Oc4ccccc43)CC2)cc1", "note": "(stereo not drawn)", "Potency": "inconclusive [inhibitor, single point]"}
{"smiles": "COc1ccc(-c2cc(C(=O)OCC(=O)NC3CC3)c3ccccc3n2)cc1", "Potency": "inconclusive [inhibitor, single point]"}
{"smiles": "CC1CCCC(NC(=O)c2cccc(S(=O)(=O)N3CCCCC3)c2)C1C", "note": "(stereo not drawn)", "Potency": "inconclusive [inhibitor, single point]"}
{"smiles": "Cc1ccc(C(NC(=O)C2CCN(CCCOc3ccccc3)CC2)c2ccccn2)cc1", "note": "(stereo not drawn)", "Potency": "inconclusive [inhibitor, single point]"}
{"smiles": "O=C(O)C1CC=CCC1C(=O)NCCCCc1ccccc1", "note": "(stereo not drawn)", "Potency": "inactive"}
{"smiles": "COc1ccc([C@H]2CC(=O)C=C(C#CC(C)(C)C)C2)cc1", "Potency": "inconclusive [inhibitor, single point]"}
{"smiles": "CCCCNC(=O)c1ccc2nc(CC)c(N(CC)CCN(C)C)n2c1", "Potency": "inactive"}
{"smiles": "CC(C)=C1C2C=CC1C(C(=O)Nc1cccc(C)c1)C2C(=O)O", "note": "(stereo not drawn)", "Potency": "inconclusive [inhibitor, single point]"}
{"smiles": "Cc1cc(C)nc(SCC(=O)Nc2ccc(S(=O)(=O)NC(C)(C)C)cc2)n1", "Potency": "active: 14.6 µM"}
{"smiles": "O=C(Nc1ccc2[nH]c(=O)[nH]c2c1)c1cccc([N+](=O)[O-])c1", "Potency": "inactive"}
{"smiles": "CC(C)(C)NC(=O)C1C(c2ccc(C(F)(F)F)cc2)=Nc2ccccc2N1C(=O)c1cccc2ccccc12", "note": "(stereo not drawn)", "Potency": "inconclusive [inhibitor, single point]"}
